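Grown in 96-well plates, cells were treated for 48 hours with each compound at five concentrations. Insufficient inhibition: endpoint recorded as highest concentration tested. The concentration for 50% growth inhibition is given as GI50. TGI marks complete inhibition of growth.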
What follows are compounds tested on NCI-H322M lung (assay: NCI anticancer screen, dose series, 48 h).
Oc1ccc2occ3c2c1CCC3 was tested, and the TGI was greater than 100 µM. With CS(=O)(=O)OCCN1CCN(C(=O)c2cccc3c(Nc4ccc(S(N)(=O)=O)cc4)c4ccccc4nc23)CC1 the TGI was greater than 100 µM. CCOCC(=O)N[C@H]1CCc2cc(OC)c(OC)c(OC)c2-c2ccc(SC)c(=O)cc21 was tested, and the TGI was greater than 21.5 µM. With NC(=O)C(Br)CBr (stereo not drawn) the GI50 was 18.9 µM and the TGI was 46.6 µM. For Cc1ccc(-n2c(O)c3c(N)n[nH]c3c(C#N)c2=O)cc1, the TGI was greater than 100 µM. Cc1cc(=O)c2cc(N=Cc3ccc([N+](=O)[O-])o3)ccc2o1 gave a TGI greater than 100 µM. With O=C(Nc1nnc(-c2ccccc2)o1)C(SC(=S)N1CCOCC1)c1ccccc1 (stereo not drawn) the TGI was 62.9 µM. Cc1nc2cncc(C#Cc3cncc(C(=O)Nc4ccc(CN5CCN(C)CC5)c(C(F)(F)F)c4)c3)c2nc1C showed a GI50 of 0.324 µM and a TGI of 6.32 µM. For Cc1ccc(C(=O)O/N=C2/CCCCC2CN(C)C)cc1 (stereo not drawn), the TGI was greater than 100 µM. For Cc1cc(N=Cc2c(CO)cnc(C)c2O)c(N=Cc2c(CO)cnc(C)c2O)cc1C.[Zn], the TGI was greater than 100 µM. Work on CC(C)(C)n1c(=O)n(C(=O)C(Cl)(Cl)Cl)n(C(=O)C(Cl)(Cl)Cl)c1=O yielded a TGI greater than 100 µM. Work on O=C(Nc1ncc(Cc2ccccc2)s1)c1ccc2c(c1)OCCCO2 yielded a GI50 greater than 39.4 µM and a TGI greater than 100 µM. In the case of O=C1c2ccccc2-c2nccc3cc(Cl)nc1c23, the GI50 is reported as greater than 33.9 µM and the TGI is reported as greater than 100 µM. In the case of C=C(CC(=O)Nc1ccc(C(=O)OC)o1)C(=O)OC, the TGI is reported as greater than 100 µM. Cc1cc(Nc2ccc(N=Nc3ccc(O)c4ncccc34)cc2)nc(C)n1 showed a TGI of 67.6 µM. Compound S=C1C(=Nc2ccccc2)N(c2ccccc2)/C(=N\c2ccccn2)N1c1ccccc1 has a TGI of 30.5 µM. With O=C1C=C2CO[C@H]3OC[C@H](O)[C@@H]1[C@@H]23 the TGI was greater than 100 µM. Work on O=C1OC2(C(F)(F)F)Oc3ccccc3CN2C12CCCCC2 (stereo not drawn) yielded a TGI greater than 100 µM. Nc1ccc(-c2nc3ccccc3[nH]2)c(O)c1 was tested, and the GI50 was 15.3 µM and the TGI was 70.8 µM. With O=C(Nc1c(Cl)cc([N+](=O)[O-])cc1Cl)C(=O)C1C(=O)NC(=S)NC1=O the TGI was greater than 100 µM. COc1cc(/C=C2\N=C(c3ccccc3)N(/N=C3\C(=O)Nc4ccccc43)C2=O)cc(OC)c1OC was tested, and the TGI was greater than 100 µM. Compound O=C1c2ccccc2-c2c1c1ccc([N+](=O)[O-])cc1c(=O)n2CCNCCCNCCn1c2c(c3ccc([N+](=O)[O-])cc3c1=O)C(=O)c1ccccc1-2 has a GI50 of 0.172 µM and a TGI of 22.4 µM. Cc1[nH]c(C(=O)Nc2ccc(C(=O)N3CCNCC3)cc2OC(C)C)c(Cl)c1Cl was tested, and the GI50 was 2.1 µM and the TGI was 5.54 µM. Work on CCN(CC)CCOc1ccc(Nc2ncc3cc(-c4c(Cl)cccc4Cl)c(=O)n(CCOC)c3n2)cc1 yielded a GI50 of 0.126 µM and a TGI of 6.41 µM. Compound CC1(C)CN(c2ccccc2)C(=O)C1OC(=O)[C@@]1(C)C[C@@H]2C=C[C@H]1C2 (stereo partly drawn) has a TGI greater than 100 µM.

Source: PubChem BioAssay (NCI)
